# According to the RNAGym collection of RNA variant scans (doi:10.7554/elife.90254):
# Read counts are not given, so values of variants with three or more changes are uncertain.
# B1: LINE1-mini (parent)
# chain: GGCAGAGCUCAACACAGCGUGGCAAAGUGGCUGUGGCUAGACUGCC
# Variants of: B1
# Assay: self-cleavage, relative activity (ratio to wild type); higher = more cleavage; in vitro, sequencing; the parent is a self-cleaving ribozyme
row,Variant,self-cleavage
1,A11C A12G C15U,0.01
2,G1U C8A C10A C45G,0
3,G2A C10A C46U,0.1
4,G1A A6U A14C A26G,0.37
5,A24G G30C C37U C42U,0.09
6,C15U A25C A41G,0.04
7,G1U C3A G5U G40U,0
8,G5U A11G C15A G19U G35A A41U,0.04
9,A4G C10A C23G A25U,0.02
10,C8A C23G G35U,0.2
11,A11U U28A G44A,0.03
12,U9G A12C U34G,0.03
13,G2A C13G G29A,0.08
14,A24U A26C G27U C37A U38C A41G,0.03
15,G21C C23U U28A,0.16
16,A11G G29A C31U,0.03
17,G2U C8U G30C A41U,0.16
18,A6G C10A C45G,0.02
19,G5U C13A G22U,0.04
20,A4C C13U C15U,0.07
21,C8U A12U A14U G17C U38A,0.12
22,C8G A11G U32A U43A C45G,0.01
23,C3G G36A U38G,0.01
24,A4G G30U A39C,0.05

row,Variant,self-cleavage
1,C18A C42U U43A,0.11
2,C23U A24G C31U G35A,0.02
3,A16G G27U U28C G36U U43G,0
4,C8G A16G G27C U28G G29C C31A U34G,0
5,A11C A24G G29U G36U,0.03
6,C10U A26U G29U,0.06
7,G29A G36C C42U,0.16
8,C13A A16U G29A,0.07
9,G2C A6G C10U G27C C46A,0.02
10,A12C A14C G17C C18U G21U,0.02
11,A6U G30C C46U,1.41
12,A11C A12U C46A,0.01
13,A4G C18G A26C C37A,0.13
14,C3A C18G G21A A25U C45U,0.16
15,A4U C18U C23U,0.17
16,A6U C8A C23U,0.28
17,A6C U34A C45U,0.03
18,C15U A26G A39C,0.16
19,C13U C42U G44A C46U,0.08
20,G2C C10G A25C C42A C46U,0.02
21,C8A G17A C18A C46G,0.31
22,A12U G19A U43G,1.14
23,U9C C15U G21A,0.04
24,A6G C8A C15U U28A G33U G44U,0.66

row,Variant,self-cleavage
1,C8G A11G U28A,0.01
2,A12U C13U G27A,0.11
3,G19A G33A A39G,0.07
4,U9C A25U G27A U34C G35A G44C,0
5,C10A U32G C42U,0.01
6,C15U G30C U32A U34A G35U,0.04
7,G30A G36A A41C,0.09
8,G2A C8A G19A,0.33
9,U20C U28A G29C,0.46
10,G7C C10G A11U U28A C45A,0.03
11,C13A G29A G30C,0.01
12,A6U C13U A24U G35U,0.15
13,C15U U20A G27A,0.9
14,A4C C18A G30U C42A,0.82
15,C10U A12G U38C,0.05
16,A11U C13A C23G A39C G40C G44A,0
17,G1U C8U G17C A41U,0.08
18,U9A C18G C45G,0.08
19,C3A G19C C37G,0.03
20,C3A U9A U28A C45U,0.12
21,C10A C15U G30A U34A G35A C46A,0.05
22,C31U A39G U43C,0.01
23,C8A A16U C23A A41U,0.35
24,A4G G17C G29U G33C C45A,0.07

row,Variant,self-cleavage
1,U9C G17A G40U C45G,0.02
2,A25U G27U G36A,0.16
3,A11G G27A G29U G33A C37A G40U A41U,0
4,A4C C15A A16G A39C C42U,0.04
5,U9A A24U A25U G35A,0.16
6,G7A A16U G17U A24G,0.19
7,G5U G17A G19U U20C G29C G36U C42A C45A,0.02
8,G1A G35A U38C,0.09
9,A11G G40U G44U,0.04
10,C3U A4U A12C U28G U34C C42U,0.03
11,A6C C10U C15A A16G G36C,0.06
12,G2C G7A G17C G27C G36A,0.2
13,A12G C18A G27C U34G,0.01
14,C18U G40U C46A,0.01
15,G17A G21A G22U C46U,0.13
16,C10G C13U A41U C46A,0.01
17,C8U C13A G17C C46U,0.22
18,A6U C31G G33U,0.1
19,G7U A14C A25G G36U,0.11
20,A14U C31A G40U,0.08
21,C15A U28A G35U U43G C45A,0.05
22,G2A A12G G29U C31U,0.31
23,A4G G21C A24G,0.09
24,C10A G29U U43C,0.02

row,Variant,self-cleavage
1,C3U G5U C8G G33U,0.22
2,A4G C13A G17U C46A,0.43
3,A6U G33U C45A,0.12
4,A12G C13A C15G U20C U43C,0.03
5,A4U G5C C10A,0.01
6,U9A A24G C37A,0.27
7,G2U G5U G22U G27A A41G C42U,0.05
8,G5U C8A C15G G35U C45U,0.44
9,G7C C18A U28A,0.01
10,G17C G30U G40U,0.04
11,C3U U20A C23A G30A,0.31
12,A4C A14U C15U G27A A39G,0.01
13,A11U C31A A39C A41C,0
14,C23A G35C U38G G44C,0.01
15,A11U G29U G40U C45U,0.02
16,A12C A16G G17C C45G,0.08
17,G1A G17U U20A A26U U34A A39G G44C,0
18,G19U C23G A26C G35A,0.11
19,G19U A39U G40U G44A,0.02
20,A14G G17U G21U G22A U28A C31U,0.03
21,C10A C13A C18U G19U,0.01
22,G1C C8U A41U C45G,0.07
23,G7A C15G A26U G36A,0.09
24,U32G G33A G44C C45G,0.05

row,Variant,self-cleavage
1,A6G C8U G17C,0.3
2,C31A U38G G40U C46A,0.02
3,G5A G17U C31G U32A A39G,0.02
4,C18U U20C G33U,0.02
5,A26U G40A A41C,0.11
6,A11G C15A G29C G44A,0
7,G2U C3A C18G G19A U32A G40C,0.06
8,C3A G22U A41C,0.11
9,G27A U28A G33U,0.38
10,A6G C18A A26G G27U U28G C45G,0.03
11,G5C C10A G36A,0.03
12,A4C G5U G7U A12C G30U,0.06
13,A16C U32A G40A C46U,0.09
14,G1U C3U A26C G27C,0.09
15,G5U A16U U32G G40U,0.12
16,G29C C37U C45A,0.01
17,G22C G30A C31G C45U,0.04
18,G1C A11C C37A A39U C42U,0.04
19,G5U G21A C46G,0.12
20,C13G G30C G36U C37A C42U,0.11
21,G7A A39C C42A,0.36
22,C3A G7C U9A A12G A26C U28A C31G,0.05
23,A24C G35C G40A,0.15
24,U9A C10U C18G G40U,0.14

row,Variant,self-cleavage
1,G7U C18G A41U C45A,0.04
2,A41G C42U C46U,0.13
3,G19A U32C A41G C42U,0.01
4,C3G G40U C45U,0.11
5,G5U G22A G27C,0.03
6,A11U C13U A14C A41G,0
7,A26G U34A G36U,0.06
8,A6U U9A U20G,0.09
9,U9A G40U C46A,0.42
10,A6C C18U G22A A26U C31U,0.02
11,A4C G5U G22U U28A G30U U32A,0.04
12,A11U A12U G22A,0.12
13,G21A A24U U38A,0.52
14,A4U A12U A26G U38A,0.32
15,G2A U28A G30C G44U,0.32
16,A14U U20A U38C C46U,0.12
17,C10U G17U G30A,0.2
18,C10A C37U U38C,0.02
19,C3A A6G U43A,0.11
20,A24G A41U G44U,0.03
21,A6C G7U U28G,0.04
22,A16G U34A U43C,0.05
23,A6U C13G U28G G35C,0.15
